According to PMC12136788:
This is one part of the list.

B1: chr19:21059139:21059240:+|3pUTR|ENSG00000118620|unk|total|mutant (ssRNA)
RNA: GGGAGUUCUACAGUCCGACGAUCGUAAAAAUGAAAAUAUUUAAUCCAAAAUUAAGUCUAUGUAAAUAUCAGAGAAUUUACUGCCGAAAUAUAUAAGGCACUGAGACUUCAGAUAUUAUACUAAAUCAGAGUGCUGAGUACCGACAACAGAGGAUUGAGCAUCA
B2: chr12:39619279:39619382:-|CDS|ENSG00000173208|unk|FALSE|unique (ssRNA)
RNA: GGGAGUUCUACAGUCCGACGAUCCGAGACCAUUUGUGAAAAACCUUCGCCUGGAGUGAAUGCAGAUUUCUUCAAACAGCUACUAGAACUUCGGAAAAUUUUGUUUCCAAAACUUGUGACCACUGAAACAGGGUGGCUCUGCCUCAACAGAGGAUUGAGCAUCA
B3: chr12:6238111:6238124:+|3pUTR|ENSG00000010278|msi1_unk|FALSE|overlapping (ssRNA)
RNA: GGGAGUUCUACAGUCCGACGAUCUGUUUGUUUUUGCUUGUUAUAUUAAGCAGAAAUCCUGCAAUGAAAGGUACUAUAUUUGCUAGACUCUAGACAAGAUAUUGUACAUAAAAGAAUUUUUUUGUCUUUAAAUAGAUACAAAUGCAACAGAGGAUUGAGCAUCA
B4: chr17:74695098:74695251:-|CDS|ENSG00000186074|control|control|control (ssRNA)
RNA: GGGAGUUCUACAGUCCGACGAUCUCUCUGACCUUGGGUGCUGAGGAUCAGGAACCGACCUACUGCAACAUGGGCCACCUCAGUAGCCACCUCCCCGGCAGGGGCCCUGAGGAGCCCACGGAAUACAGCACCAUCAGCAGGCCUCAACAGAGGAUUGAGCAUCA
B5: ENSG00000198589:be:win_9551|3pUTR|ENSG00000198589|bound_else_gene|NA|bound_elsewhere_windowed (ssRNA)
RNA: GGGAGUUCUACAGUCCGACGAUCUGUGUGGAAUUCUGUGAAAAAUAUUUGAGAAAAGGCCUGUAUUGCAUAAAUAAAUUCUUUGUAUGUUGUGAACUUUGAUCUCUAUUUCUCUUGCAACAGACUUCAAGUGGUCCCUCUUUUCAACAGAGGAUUGAGCAUCA
B6: chr1:89933607:89933717:+|CDS|ENSG00000171492|unk|FALSE|bound_elsewhere (ssRNA)
RNA: GGGAGUUCUACAGUCCGACGAUCCAACUUUUGGUUCAAAUAUCCCAAAACAUGCUCAAAAGUAGAACAUUUUGUUUCAAUAUUAGGAAAGUGCUUUGAAUCCCCUUGGACGACAAAAGCGUUGUCUGAGACAGCAUGCGAAGACAACAGAGGAUUGAGCAUCA
B7: chr3:41225653:41225883:+|CDS|ENSG00000168036|unk|total|mutant (ssRNA)
RNA: GGGAGUUCUACAGUCCGACGAUCCAUUACAACUCUCCACAACCUUUUAUUACAUCAAGAAGGAGCUAAAAUGGCAGUGCGUUCCGCUGGUGGGCUGCAGAAAAUGGUUGCCUUGCUCAACAAAACAAAUGUUAAAUUCUUGGCCAACAGAGGAUUGAGCAUCA
B8: chr2:112659350:112659462:+|CDS|ENSG00000144136|unk|FALSE|unique (ssRNA)
RNA: GGGAGUUCUACAGUCCGACGAUCCUUGCCAAGGUGGGAGAUUGCAUGGGAGACUCCGGUGACAAACCCUUAAGGCGCAAUAAUAGCUAUACUUCCUAUACCAUGGCAAUAUGUGGCAUGCCUCUGGAUUCAUUCCGUGCCAAACAACAGAGGAUUGAGCAUCA
B9: chr8:28970260:28970371:+|CDS|ENSG00000147421|unk|FALSE|unique (ssRNA)
RNA: GGGAGUUCUACAGUCCGACGAUCUCUUCCUCUACAGCUACAGCUUCCACACAGACGCAGCAUUCGGGAAUGUCCCCGUCACCUAGCAACAGUUAUGAUACUUCCCCACAGCCUUGCACUACCAAUCAAAAUGGGAGGGAGAAUCAACAGAGGAUUGAGCAUCA
B10: chr8:42175261:42175472:-|3pUTR|ENSG00000104368|msi1|total|mutant (ssRNA)
RNA: GGGAGUUCUACAGUCCGACGAUCGUAUUCCUUUUGUGUACAGUGUGUAAAGUGUAAAUCCUUUUUCUUUAUAAACUUCCGAGCCGCAUGAGAGAAUUGUAUCAUUUGAACAACCCGGCUUCAGCAUAUUUACCGCAAUCCAUGCAACAGAGGAUUGAGCAUCA
B11: chr2:33399154:33399255:+|3pUTR|ENSG00000049323|msi1|FALSE|unique (ssRNA)
RNA: GGGAGUUCUACAGUCCGACGAUCAAGUACUUUAUAUUUUCAGUGUUUUGUCUGAUUUUAAUGUCCGUUCUUAGCCAAGCUGCUAGCAGGUGUUAAUUGGAUCCCUUUCCUUCACUGAAAUGGAAGAGUUUAUAAGCUUACGUUCAACAGAGGAUUGAGCAUCA
B12: chr5:180576808:180576909:+|3pUTR|ENSG00000113300|unk|FALSE|unique (ssRNA)
RNA: GGGAGUUCUACAGUCCGACGAUCUAUUUUCCGUGUCCUAAAUAAUUUUCAAUAAUCUAUAAUCCCUAAAAUGCAAUAAAAACUAGUAUGUUUUCACGGUGUAUAUUUUUUUUCAAAAAUUCUGUAACAAAUAUAUUUAAUGUGCAACAGAGGAUUGAGCAUCA
B13: chrX:85861749:85861850:-|3pUTR|ENSG00000188419|msi1|FALSE|unique (ssRNA)
RNA: GGGAGUUCUACAGUCCGACGAUCCUAAUUUAAAAUUUCAGAAAAUGCUAUUAAAGAAUUUUGAUUCAAGUAUUUAAACUGUUUAGUUAUGCAUGCUUCUUAUUAACCGAAAAUGAUAAUACCAUUUAGUUUAGUGAUCAGUAUCAACAGAGGAUUGAGCAUCA
B14: ENSG00000181104:stop:overlap|stop_codon|ENSG00000181104|stop_codon|NA|stop_codon (ssRNA)
RNA: GGGAGUUCUACAGUCCGACGAUCGUAAAAUGGAUACCUGCUCUAGUAACCUGAAUAACAGCAUAUACAAAAAGCUGUUAACUUAGGAAAAGGGACUGCUGGGAGGUUAAAAAGAAAAGUUUAUAAAAGUGAAUAACCUGAGGACAACAGAGGAUUGAGCAUCA
B15: ENSG00000114062:stop:overlap|stop_codon|ENSG00000114062|stop_codon|NA|stop_codon (ssRNA)
RNA: GGGAGUUCUACAGUCCGACGAUCUGGGAGGACUAGGAAAAUUAAAGAUGAUUAUAGCCAAAAAUGGCCCAGACACAGAAAGGUAGGUAAUUAUUAACUUGUGACUGUAUACCUACCGAAAACCUUGCAUUCCUCGUCACAUACCAACAGAGGAUUGAGCAUCA
B16: chr21:25606471:25606579:-|CDS|ENSG00000154719|unk|FALSE|unique (ssRNA)
RNA: GGGAGUUCUACAGUCCGACGAUCUGAUCUCUUUAAUAAAGAGAAAGCCAGGCAGUUAUCAUUAACUCCCCGAACUGAGAAGAUAGAAGUUAAGCAUGUUGGGAAAACUGACCCCGGUACUGUCUUCGUGAUGAAUAAAAACAUCAACAGAGGAUUGAGCAUCA
B17: ENSG00000100034:stop:overlap|stop_codon|ENSG00000100034|stop_codon|NA|stop_codon (ssRNA)
RNA: GGGAGUUCUACAGUCCGACGAUCGGAGGCAGGACUUGCCCUCCAGCCUUCCAGAACCUGAGACCCAGGCUCCACCAAGAAGCUAGGUGGUUUCCAGGCCCCUGCCCUCCCCUUCCUCCCAUCCUUGUCCUUCUCUCCCUCAGACAACAGAGGAUUGAGCAUCA
B18: chr1:9729132:9729211:-|3pUTR|ENSG00000171603|msi1_unk|FALSE|overlapping (ssRNA)
RNA: GGGAGUUCUACAGUCCGACGAUCUAGUUCUGAGGACACUGGUGGCUGUGCUAUGUGUGGCCAUCCUCCAUGUCCCGUCCCUGUAGCUGCUCUGUUUAGACAGCGGACAGACGCUCACGCCCAGGGGAUGUCCUCACGCUGUCGCAACAGAGGAUUGAGCAUCA
B19: chr11:111494814:111495134:-|three_prime_utr|ENSG00000137707|control|control|control (ssRNA)
RNA: GGGAGUUCUACAGUCCGACGAUCUCUCUAAAAUAAAAAUGAAUUUAAGGUUGAGAGGCCCAUGAAACAAAAAAUGACCAUAUUAGGGACUAGGGUACACAAUGGUAAAUCCUCUCAUACAGAUCAUCACUGUUCUUAGCUGUACAACAGAGGAUUGAGCAUCA
B20: chr3:194587672:194588620:-|three_prime_utr|ENSG00000145014|control|control|control (ssRNA)
RNA: GGGAGUUCUACAGUCCGACGAUCAAGCUGCCCUGGCAAGUGAGGAACCAGGAGCCGUCACUGAGUGUGGCUGGGCUACAUCAUAGCUCAUCACGGAGCUACGACUUUGGGUACUGCGGACAGACCUGGAUAGGCCCAGCAUUCCAACAGAGGAUUGAGCAUCA
B21: chr1:225419324:225419425:-|CDS|ENSG00000143815|msi1|FALSE|unique (ssRNA)
RNA: GGGAGUUCUACAGUCCGACGAUCUUACAUAGCAACACAGUAUAGCCUUCGUCCAAGAAGAGAAGAAGUCAAAUUAAAAGAAAUAGAUUCUAAGGAAGAAAAAUACGUUGCAAAAGAACUGGCAGUGAGAACCUUUGAAGUGACCAACAGAGGAUUGAGCAUCA
B22: chr10:99876058:99876159:-|3pUTR|ENSG00000107554|msi1|FALSE|bound_elsewhere (ssRNA)
RNA: GGGAGUUCUACAGUCCGACGAUCUUGAGCCUAAUGGAAGACUGGAUGUCUUUCUUCUUCAUCCAAGCACCCUAAUGACUGUUUAGUUACAUCCAUAGAUGCAGACAACAUAACACCUGUGACUUACUUGAAUUGGGAUAAGCCCAACAGAGGAUUGAGCAUCA

The binders below were run against MSI1 full-length (mouse, UniProt Q61474 1-362) (assay: nsRBNS (natural sequence RNA bind-n-seq); RBNS binding buffer (assumed for nsRBNS): 25 mM Tris pH 7.5, 150 mM KCl, 3 mM MgCl2, 0.01% Triton X-100, 500 ug/ml BSA, 20 U/ml SUPERase-In, 4 C; UNK is unkempt and MSI1 is Musashi-1; names of the RNAs are library labels; protein concentration not given here; high values mean tight binding).
Sequence of UniProt Q61474 (Q61474 whole entry): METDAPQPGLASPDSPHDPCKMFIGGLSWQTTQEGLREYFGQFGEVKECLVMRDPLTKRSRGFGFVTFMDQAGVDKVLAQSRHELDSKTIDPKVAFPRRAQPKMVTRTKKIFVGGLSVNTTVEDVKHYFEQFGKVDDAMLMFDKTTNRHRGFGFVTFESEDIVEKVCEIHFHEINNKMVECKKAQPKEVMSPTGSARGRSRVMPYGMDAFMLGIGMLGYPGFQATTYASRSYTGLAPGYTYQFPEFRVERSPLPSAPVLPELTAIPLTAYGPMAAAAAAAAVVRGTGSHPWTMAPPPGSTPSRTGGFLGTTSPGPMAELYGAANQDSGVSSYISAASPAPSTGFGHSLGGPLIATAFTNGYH

Row | Binder | binding signal
1 | B1 | 4.16 enrichment R
2 | B2 | 0.308 enrichment R
3 | B3 | 1.03 enrichment R
4 | B4 | 0.377 enrichment R
5 | B5 | 0.423 enrichment R
6 | B6 | 1.32 enrichment R
7 | B7 | 0.422 enrichment R
8 | B8 | 0.737 enrichment R
9 | B9 | 0.658 enrichment R
10 | B10 | 0.424 enrichment R
11 | B11 | 0.417 enrichment R
12 | B12 | 15.7 enrichment R
13 | B13 | 54.6 enrichment R
14 | B14 | 0.328 enrichment R
15 | B15 | 0.428 enrichment R
16 | B16 | 0.308 enrichment R
17 | B17 | 1.62 enrichment R
18 | B18 | 0.532 enrichment R
19 | B19 | 1.78 enrichment R
20 | B20 | 0.493 enrichment R
21 | B21 | 2.94 enrichment R
22 | B22 | 0.725 enrichment R
